The list shows a part of the results. A value given as a limit tells only on which side of the number the result lay.

Sequences and labels used below:
B1: PhoQ; a variant is named by its letters at X, in order, P23837 (parent)
chain: MKKLLRLFFPLSLRVRFLLATAAVVLVLSLAYGMVALIGYSVSFDKTTFRLLRGESNLFYTLAKWENNKLHVELPENIDKQSPTMTLIYDENGQLLWAQRDVPWLMKMIQPDWLKSNGFHEIEADVNDTSLLLSGDHSIQQQLQEVREDDDDAEMTHSVAVNVYPATSRMPKLTIVVVDTIPVELKSSYMVWSWFIYVLSANLLLVIPLLWVAAWWSLRPIEALAKEVRELEEHNRELLNPATTRELTSLVRNLNRLLKSERERYDKYRTTLTDLTHSLKTPLXXLQXXLRSLRSEKMSVSDAEPVMLEQISRISQQIGYYLHRASMRGGTLLSRELHPVAPLLDNLTSALNKVYQRKGVNISLDISPEISFVGEQNDFVEVMGNVLDNACKYCLEFVEISARQTDEHLYIVVEDDGPGIPLSKREVIFDRGQRVDTLRPGQGVGLAVAREITEQYEGKIVAGESMLGGARMEVIFGRQHSAPKDE

Variants of B1 are the subject of this assay. Kind of assay: enrichment ratio after two sorts for PhoP signalling (ratio (wild type AVST 3.29)); higher = more functional. The conditions noted are these: with PhoP (E. coli).
Take FDEH: the enrichment ratio was ≤ 0.25.
With MVMT, the enrichment ratio is ≤ 0.25.
Consider YFFW, for which the enrichment ratio is ≤ 0.25.
With WYAH the figure was ≤ 0.25; with PCHK, ≤ 0.25; with WDWN, ≤ 0.25.
As to FYLD, the enrichment ratio was ≤ 0.25.
With PPSS the figure was ≤ 0.25; with VGRM, ≤ 0.25; with GRHI, ≤ 0.25.
With VRIK the figure was ≤ 0.25; with PRHH, ≤ 0.25; with EGFL, ≤ 0.25.
HDSE: the enrichment ratio is ≤ 0.25.
For NMKD the value was ≤ 0.25.
With ELVY the figure was 0.824; with QKYT, 1.91; with SHVI, 1.46.
With GYPG the figure was ≤ 0.25.
With NPYM, the enrichment ratio was ≤ 0.25.
For GSHR the value was ≤ 0.25.
On to KKWY, for which the enrichment ratio was ≤ 0.25.
Take DCVM: the enrichment ratio was ≤ 0.25.
In the case of GVRC, the enrichment ratio is ≤ 0.25.
With GCQK the figure was ≤ 0.25.
For PPLN the value was ≤ 0.25; for PMDM, ≤ 0.25; for MYSM, ≤ 0.25.
With KQMT the figure was ≤ 0.25.
As to VQCD, the enrichment ratio is ≤ 0.25.
With PRIS the figure was ≤ 0.25; with EVQW, ≤ 0.25; with YRTM, ≤ 0.25.
ARHY: the enrichment ratio was ≤ 0.25.
Take GCHP: the enrichment ratio was ≤ 0.25.
For HESK the value was ≤ 0.25.
With HEKT the figure was ≤ 0.25; with QMSP, ≤ 0.25; with MRFI, 0.326.
On to RHML, for which the enrichment ratio was ≤ 0.25.
For RHFQ the value was ≤ 0.25.
With INPI the figure was ≤ 0.25.
For SLTV the value was 10.4.
With RPVG, the enrichment ratio is ≤ 0.25.
For the variant GHRS, the enrichment ratio is ≤ 0.25.
For TYWE the value was ≤ 0.25; for PMNH, ≤ 0.25; for APYV, ≤ 0.25.
Regarding QQPW, the enrichment ratio is ≤ 0.25.
With DQNV the figure was ≤ 0.25; with VKWY, ≤ 0.25.
As for FSQY, the enrichment ratio is ≤ 0.25.
With MKSV the figure was ≤ 0.25; with INSP, ≤ 0.25; with AWKS, ≤ 0.25.
With WNKG, the enrichment ratio was ≤ 0.25.
For PVFR the value was ≤ 0.25; for VRLN, ≤ 0.25; for FEKA, ≤ 0.25.
With ELWF the figure was ≤ 0.25; with IIMA, ≤ 0.25; with LREM, ≤ 0.25.
For YECW the value was 0.272.
As to FMQW, the enrichment ratio was ≤ 0.25.
Turning to SFTN, the enrichment ratio is ≤ 0.25.
YTVG: the enrichment ratio is ≤ 0.25.
With QLFV, the enrichment ratio was ≤ 0.25.
As for WEHP, the enrichment ratio is ≤ 0.25.
For the variant ETSC, the enrichment ratio was ≤ 0.25.
Take SNCG: the enrichment ratio is 13.5.
With MWSC, the enrichment ratio was ≤ 0.25.
For LPEV, the enrichment ratio was ≤ 0.25.
Consider LAEP, for which the enrichment ratio is ≤ 0.25.
For SEQE the value was ≤ 0.25; for TLKG, ≤ 0.25.
With HTER the figure was ≤ 0.25; with RIWC, ≤ 0.25.
For VMWV the value was ≤ 0.25; for RWSA, ≤ 0.25.
Take GKCS: the enrichment ratio turned out to be 0.777.
For LCAG, the enrichment ratio was ≤ 0.25.
With WHIA the figure was ≤ 0.25; with IAVY, ≤ 0.25; with WLWM, ≤ 0.25.
For IPFM the value was ≤ 0.25; for GFTY, ≤ 0.25; for MPMS, ≤ 0.25.
For FDTA the value was ≤ 0.25; for ITFD, ≤ 0.25; for TTTI, 22.1.
In the case of PPPP, the enrichment ratio was ≤ 0.25.
For GYIK the value was ≤ 0.25; for APNR, ≤ 0.25.
For DEMM the value was ≤ 0.25.
Take MEWI: the enrichment ratio came out at 24.
With GDRW the figure was ≤ 0.25; with GCYP, ≤ 0.25; with WQFY, ≤ 0.25.
With SFGA the figure was ≤ 0.25; with ITLQ, 5.07.
In the case of TWSV, the enrichment ratio was ≤ 0.25.
For FAFP the value was ≤ 0.25; for APDF, ≤ 0.25.
Regarding MHHK, the enrichment ratio was ≤ 0.25.
For HLDI, the enrichment ratio is ≤ 0.25.
For DAAT the value was ≤ 0.25; for IMTG, ≤ 0.25.
For the variant FVGI, the enrichment ratio is ≤ 0.25.
Turning to MEAR, the enrichment ratio was ≤ 0.25.
In the case of ATSG, the enrichment ratio was determined as 5.01.
For CIQV the value was ≤ 0.25; for NEWS, ≤ 0.25; for YYKQ, ≤ 0.25.
For GCNS the value was ≤ 0.25; for TCAF, 8.3; for YPGQ, ≤ 0.25.
With HNGD the figure was ≤ 0.25.
As for YKHS, the enrichment ratio was ≤ 0.25.
With GHIP the figure was ≤ 0.25; with GITC, 8.58; with WICY, ≤ 0.25.
For LGNQ the value was ≤ 0.25; for ICCV, ≤ 0.25.
Take TMRG: the enrichment ratio was ≤ 0.25.
With INDA the figure was ≤ 0.25; with YGRR, ≤ 0.25.
Consider KIKM, for which the enrichment ratio was ≤ 0.25.
Turning to EPYV, the enrichment ratio is ≤ 0.25.
In the case of MTND, the enrichment ratio was ≤ 0.25.
With LTCK the figure was ≤ 0.25; with HQWC, ≤ 0.25.
Take DDWK: the enrichment ratio was ≤ 0.25.
For VEKA the value was ≤ 0.25; for PLPM, 0.586.
Take KMCP: the enrichment ratio was ≤ 0.25.
Consider AWPT, for which the enrichment ratio is ≤ 0.25.
For WRID the value was ≤ 0.25.
Turning to QAFM, the enrichment ratio is 2.31.
For IIVC the value was ≤ 0.25; for GLIQ, ≤ 0.25; for GDWV, ≤ 0.25.
For KTPH the value was ≤ 0.25.
Consider SGLL, for which the enrichment ratio was 19.8.
In the case of SGNH, the enrichment ratio is ≤ 0.25.
On to GYQD, for which the enrichment ratio is ≤ 0.25.
For KICK, the enrichment ratio was ≤ 0.25.
With NVFI the figure was ≤ 0.25; with HYYD, ≤ 0.25; with RFTC, ≤ 0.25.
For TEHK the value was ≤ 0.25.
For the variant WRSW, the enrichment ratio was ≤ 0.25.
For MTSW the value was ≤ 0.25; for NYDP, ≤ 0.25.
As to STQK, the enrichment ratio was ≤ 0.25.
With AEPK, the enrichment ratio is ≤ 0.25.
With GGAV the figure was 23.8; with LWWN, ≤ 0.25.
For TVRH the value was ≤ 0.25.
On to LCKN, for which the enrichment ratio was ≤ 0.25.
For LSKL the value was ≤ 0.25.
For WRMY the value was ≤ 0.25; for SQEQ, ≤ 0.25.
For NQYT the value was ≤ 0.25; for DVNY, ≤ 0.25.
Take SARA: the enrichment ratio is ≤ 0.25.
As to DRCL, the enrichment ratio is ≤ 0.25.
Turning to KAKM, the enrichment ratio was ≤ 0.25.
With EYRL the figure was ≤ 0.25; with PPAM, ≤ 0.25; with NNME, ≤ 0.25.
For TIYN the value was 2.88; for VWKY, ≤ 0.25; for SVLF, 0.424.
With MQNA the figure was ≤ 0.25.
For the variant YDKH, the enrichment ratio was ≤ 0.25.
With TYGW, the enrichment ratio is ≤ 0.25.
For HIQW the value was ≤ 0.25; for DNGI, ≤ 0.25; for RWFY, ≤ 0.25.
With KLFK the figure was ≤ 0.25.
With QRNQ the figure was ≤ 0.25.
MSPC: the enrichment ratio is ≤ 0.25.
For the variant LASH, the enrichment ratio was ≤ 0.25.
FSYA: the enrichment ratio was ≤ 0.25.
Regarding IWTV, the enrichment ratio is ≤ 0.25.
For the variant TGCW, the enrichment ratio is 3.49.
Regarding MCES, the enrichment ratio is ≤ 0.25.
With YMNA the figure was ≤ 0.25.
With KHWF the figure was ≤ 0.25.
On to LLCN, for which the enrichment ratio was ≤ 0.25.
On to RDQN, for which the enrichment ratio is ≤ 0.25.
For WEWS the value was ≤ 0.25; for GAAG, ≤ 0.25.
For QFWW the value was ≤ 0.25; for CMAH, 7.79; for FEQM, ≤ 0.25.
Regarding NCFY, the enrichment ratio was ≤ 0.25.
Consider VNLQ, for which the enrichment ratio amounted to 0.791.
For NTDV, the enrichment ratio was ≤ 0.25.
Consider QRLF, for which the enrichment ratio was ≤ 0.25.
Regarding RNDA, the enrichment ratio is ≤ 0.25.
With DSLN the figure was ≤ 0.25.
LKFV: the enrichment ratio is ≤ 0.25.
With LRMQ the figure was ≤ 0.25.
For DERM the value was ≤ 0.25; for HLGI, ≤ 0.25.
With WKLF the figure was ≤ 0.25; with DPFI, ≤ 0.25.
In the case of YMTL, the enrichment ratio is ≤ 0.25.
Consider IIMG, for which the enrichment ratio is ≤ 0.25.
Regarding SATT, the enrichment ratio turned out to be 2.73.
With KSVE the figure was ≤ 0.25; with ANKY, ≤ 0.25; with GTLF, 11.4.
For MTDN the value was ≤ 0.25; for DARI, ≤ 0.25.
Turning to FAIH, the enrichment ratio was ≤ 0.25.
With KGIF, the enrichment ratio was ≤ 0.25.
With YHRR the figure was ≤ 0.25.
Consider QDYS, for which the enrichment ratio was ≤ 0.25.
For YPKL the value was ≤ 0.25; for EPRF, ≤ 0.25.
Consider HSYA, for which the enrichment ratio is ≤ 0.25.
With YYLY the figure was ≤ 0.25; with GWVA, ≤ 0.25.
Take SWAC: the enrichment ratio was ≤ 0.25.
For LKLW the value was ≤ 0.25; for GYMC, ≤ 0.25; for YYEW, ≤ 0.25.
With PKYP the figure was ≤ 0.25; with QQSH, ≤ 0.25; with KAEC, ≤ 0.25.
For GHAS the value was ≤ 0.25; for RRKA, ≤ 0.25; for VIKR, ≤ 0.25.
For LHWN, the enrichment ratio was ≤ 0.25.
For ICTR the value was ≤ 0.25; for WREF, ≤ 0.25; for PKNG, ≤ 0.25.
With NFHG the figure was ≤ 0.25; with YMGD, ≤ 0.25.
For the variant IDYM, the enrichment ratio was ≤ 0.25.
Consider EDMH, for which the enrichment ratio was ≤ 0.25.
For RHEV the value was ≤ 0.25; for SFWF, ≤ 0.25; for RWMY, ≤ 0.25.
With QAGN the figure was 4.27; with EFTC, ≤ 0.25.
For TMHW the value was ≤ 0.25; for SVLM, 2.56; for VRSG, ≤ 0.25.
As to MNSA, the enrichment ratio is ≤ 0.25.
For KGKK the value was ≤ 0.25; for EGLY, ≤ 0.25; for STST, 9.52.
For LFIR the value was ≤ 0.25; for NHWR, ≤ 0.25.
With DHTA the figure was ≤ 0.25; with VKAH, ≤ 0.25; with PHCS, ≤ 0.25.
Consider FGCP, for which the enrichment ratio was ≤ 0.25.
Turning to KPLP, the enrichment ratio was ≤ 0.25.
With GNVK the figure was ≤ 0.25; with HGDY, ≤ 0.25; with ISQF, ≤ 0.25.
RWRR: the enrichment ratio was ≤ 0.25.
For EANC, the enrichment ratio was ≤ 0.25.
IQQY: the enrichment ratio was ≤ 0.25.
Take FMSI: the enrichment ratio turned out to be 0.483.
Consider LSWQ, for which the enrichment ratio turned out to be 4.56.
Take IDIN: the enrichment ratio was ≤ 0.25.
Take SIES: the enrichment ratio is ≤ 0.25.
For GMMI the value was ≤ 0.25.
Regarding AEIE, the enrichment ratio was ≤ 0.25.
NHMA: the enrichment ratio worked out at 16.2.
For the variant EGVT, the enrichment ratio is ≤ 0.25.
For the variant NPAV, the enrichment ratio is ≤ 0.25.
For GWGW the value was ≤ 0.25.
For VCWP, the enrichment ratio is ≤ 0.25.
For QNYK the value was ≤ 0.25.
With VGVC the figure was ≤ 0.25; with KTQD, ≤ 0.25.
With KPGL the figure was ≤ 0.25; with MKMI, ≤ 0.25.
For NTEN, the enrichment ratio is ≤ 0.25.
For KAVL the value was ≤ 0.25.
With QPPV the figure was ≤ 0.25; with GNII, 8.44.
With ANVW the figure was ≤ 0.25; with QFDY, ≤ 0.25; with VFLP, ≤ 0.25.
For MGPF, the enrichment ratio was ≤ 0.25.
With LSTP, the enrichment ratio is ≤ 0.25.
In the case of VTDM, the enrichment ratio was ≤ 0.25.
For the variant SGTG, the enrichment ratio was found to be 15.9.
For SNAK the value was ≤ 0.25.
For LLMH the value was ≤ 0.25.
For RCAE, the enrichment ratio is ≤ 0.25.
For HPCH the value was ≤ 0.25.
With EKHT, the enrichment ratio was ≤ 0.25.
For WHVW the value was ≤ 0.25; for LFAK, ≤ 0.25.
On to NVGK, for which the enrichment ratio is ≤ 0.25.
For the variant IACM, the enrichment ratio is ≤ 0.25.
Consider STTR, for which the enrichment ratio is ≤ 0.25.
On to QQIC, for which the enrichment ratio was ≤ 0.25.

Values taken from a collection of fitness landscapes (doi:10.1126/science.1257360).
